{
  "source": "patent US12577196B2",
  "about": "(priority 2019, dated 2026)",
  "assay_in_all_cases": "microbe, parasite or virus in culture",
  "key": {"[1]": {"test_system": "Saccharomyces cerevisiae ATCC-9763 Fluconazole resistant (20 G)", "conditions": "ATCC9763"}, "[2]": {"test_system": "Candida albicans ATCC-10231 Voriconazole resistant (20 G)", "conditions": "ATCC10231"}, "[3]": {"test_system": "Candida albicans ATCC-10231 Fluconazole resistant (20 G)", "conditions": "ATCC10231"}},
  "data": [
    {"smiles": "Cc1ccc(C(C)C)cc1OC(=O)C[N+](C)(C)CCCCCCCCCC[N+](C)(C)CC(=O)Oc1cc(C(C)C)ccc1C", "note": "[Formula IV, N1,N10-bis(2-(5-isopropyl-2-methylphenoxy)−2-oxoethyl)-N1,N1,N10,N10-tetramethyldecane-1,10-diaminium dichloride]", "values": [
      {"measurement": "MIC", "setting": "[1]", "result": 0.98, "unit": "µg/mL"}
    ]},
    {"smiles": "Cc1ccc(C(C)C)c(OC(=O)C[N+](C)(C)CCCCCCCCCC[N+](C)(C)CC(=O)Oc2cc(C)ccc2C(C)C)c1", "note": "[Formula V, N1,N10-bis(2-(2-isopropyl-5-methylphenoxy)−2-oxoethyl)-N1,N1,N10,N10-tetramethyldecane-1,10-diaminium dichloride]", "values": [
      {"measurement": "MIC", "setting": "[2]", "result": 3.9, "unit": "µg/mL"},
      {"measurement": "MIC", "setting": "[3]", "result": 7.8, "unit": "µg/mL"}
    ]}
  ]
}
